The source gives no read counts; variants with many changes may rest on few reads.
B1: LINE1-full (parent)
chain: UACGUAGGUGGUUUUCCCCUGAUAGUGCUAAGGGGGCCUGGAAGUUUGGACUGGGCAGAGCUCAACACAGCGUGGCAAAGUGGCUGUGGCUAGACUGCCUCUCUGGAUUCCUCGUCACUCAGCAGGGCAUCUCUGAGAGAAAUGCC

Variants of: B1
Test: self-cleavage, relative activity (ratio to wild type); higher = more cleavage; in vitro, sequencing; the parent is a self-cleaving ribozyme

Variant	self-cleavage
A22G U45C C51A	1.31
C18A U81A U85A A138U	0.04
G88A U104G A136G	0.07
A65G U115A U143G	0.1
A42G U62A A117U U143C	0.03
A43G U52C A64U	0.65
U5A A57G U73A	0.67
A67G U81A G122C A140G	0.76
U62C U115C G127U	0.06
U13C U108C U132C	1.15
U12C A121U A136G	2.2
U23C A43G U134A	1.27
U85C A92G C111U	0.18
U14C G74A U134C	0.96
U14A U46C U112A	1.06
G44A C68U G137A A142U	0.35
U46A A59G A69G G106A	0
G33U G82A U100A A117G C128U	0.8
C51U A69G U115A G144A	1.2
A69G G72A A78G A142G	0.26
U62A U102C A107G	0
G32A U96C U119C	0.26
G7C U87C C118U	0.19
U15A A59G U62C G105A U132A A142C	0.09

Variant	self-cleavage
C3U A6G G49A A67G	0.47
A2G A24G A30U	0.54
U20C A57G A65G G86U U115C U130C	0
G88A U100A A121G G122C	0.02
U14C U45G G122A	0.63
A30G U100C A124U A129G	0
G33A G34A A67G U112A	0.53
U73A U87A U119C	0.04
G11A A64U U100A	0.1
G8U U73C A79G C113A A121U	1.66
U1C A2G C56A A129U	0.25
U62A U91C U132A	0.03
A24G U87A A136G A141G	0.13
U12C U46C A77U	1.5
U15C G88A U100A C111U A124G A142G	0.04
A42G A138G A141G	1.64
A6G U115C U130C	0
A42G A117C U134C	1.42
U9C U14A U104C	0.28
A2G U46C U85A	0.23
G8C U14A U102A	0.77
U29C C68A A117G A138U	0.1
U29A U46G A129U	0.8
A57G G70A A78G	0.06

Variant	self-cleavage
A50G A57U C66U A129U	0.05
U39C U81A C128U	0.97
A30G G48U A140U	0.62
A22G A69G G127A	0.82
U12C U14C G32U	1.16
G11A A22G A94G U134A A140G	0.1
U5C U12G U62C U73C	0
U1C C56U G58U U81C	0.02
U14C A50G G125A	0.67
A64U A142G U143C	0.6
A42G A59U U109A	1
G86A U109A A141G	0.07
A77G U115C U132C	2.68
A2G A24G U29C G89A	0
A2G U23A U62C	0.61
G36C A64U A138G	0.54
U12C U15C C28U A59G A124G A141U	0.07
U12C U39C U47A U96A	0.08
U52A A69G C98U	0.02
U39A A57G A121G	1.29
U12C C37G U143C	1.25
A59G U85C G105U C113U	0.01
U45A U52C C71A	0.13
A2G A129G A138U	0.37

Variant	self-cleavage
G7U A59G U100A A140G	0.2
U9C A31G U85C	0
U14C U23A U143C	0.93
U1A U13C C123U	1.29
U52A A67G U87A	0.2
U13C U115C A129G A138G	1.97
G75U U104A U119C	1
A94G G97A U104C A136C A140G	0.11
A30U U62A U108C	0.06
G21A A69U U73C	0.11
A77G G89A A92G C99A U104C	0.07
G8A U13C A43G C99U U134C	1.11
U12C A43G G83C U100C G144A	1.1
U14C U45G U47C A57U G86A A140G	0.07
G72A U81C U104A A136G A140G	0.31
A43G C123G A124G A138G	0.92
A22G A78G C116U U119C	0.88
A65G U87A A107G	0.06
U14A G40A A124G	0.46
G7A U12C A77G	1.24
G11A U96C C111A	0
G54A U96C U143A	0.02
A50G A57U G80C	0.18
G49U A59G A77U	0.02

Variant	self-cleavage
U47C A50U A138G	0.85
U5C A6G U9A A59G	0
U9A C71A U134C	0.2
U47C U85C C113U	0.09
U5C U39A U134C	1.1
U1C A65G A92G	0.2
A50G G54A C71A	0.06
A42G U85C U115A A138U	0.09
U9C U81C G97A	0.22
U52A A65G A142G	0.09
U23A G74A G88A	0.07
U14A A42G U130G	0.67
U15C A117G C128U	1.53
U15C U132C A138G	2.85
U23A U26C A138G	0.15
C99A A117G A124G	0.52
G60U A136G A142G	0.04
G33U A64U U130G	0.45
G34U U46A U119A	1.22
A78G U112C U115C A136U A141G	1.67
C17U U62C A64C	0.12
A22G U29A A30G A107G	1.08
A6U U13C G35A U62C U91C A92U A124U	0.23
U26A A50G A129C	1.56

Variant	self-cleavage
A67G A121U U130A	0.5
U5C U13C U85A	0.04
U12C U29A A79G	0.84
A67U U73C U132C	0.38
U46A U47C U102C U134C	0.63
A30G G55A U119C U130C	2.3
U81A U100A C123U	1.77
U52C A65U U108C A129U	0.23
U15A G21A U39C A78G	0.55
G35A U62C U96A U100C A141G	0
U39A U46C U87C U130C	0.23
U45C U62C A140G	0.05
A2G A77G C146U	1.36
A30G U39C A65G C98G C131G	0
U96A U108C C128U	0.08
G60U A67U A140G	0.04
U39C A77U U130C	1.19
U46C A64U U112C A142G	0.66
U12C U15C U47A A64U C90U	0.01
A22G U45C A57U U62C U85C U115A	0
A22G U87C U119C	1.31
U12C A50G A69G	1.1
C38U A42G G74U U100C	1.87
G4C A50U U85C U100A	0.1

Variant	self-cleavage
A78G A79G G86A C118U	0.01
A6G U12C A64G A78G C98U	0.33
U9C C99U U100G U130C	0.25
U102C U112C C123U U132C	1.36
G8C A64U U109C U115A	0.47
U9A A57G U91C	0
U29A U47C A94G	0.61
U62A U130A A140G	0
G34A G49C A50G U102C	0.57
U29G A42C A79G C84U U119C	0.33
U9A A78U A107G	1.68
U46A U109C A136U	1.8
U14C G32A U132C	1.31
U14A U96C A138U	0.23
C90U G97A G122C	0.03
C19A U108C U143C	2.53
U20A U62C A136G A142G	0.06
U26C U45C U143A	0.75
C51A A77G A141G	2.33
A24G U46C U96C A129G A140G	0
A79U G80A A92U U104A U112C U115A U134A	2.06
C18A C71U A78G	0.32
G53A A64G A124G	0.17

From the RNAGym collection of RNA variant scans (doi:10.7554/elife.90254)
